Measurements as given in PubChem BioAssay AID504466 (National Center for Advancing Translational Sciences (NCATS), 2011).
The whole screen tested about 330,000 compounds, of which about 4,200 (1.3%) were called active. Inconclusive means that the source gave no clear call. Such entries were picked first, then a sample of the others. Calls follow the shape of the dose curve; as a rule, active = well fitted activation curve with a large enough effect; inconclusive = small, poorly fitted or top-dose-only effect; inactive = no such curve, though single readings can be large or run the other way. A potency beside an inconclusive call is a rough fit, not a confirmed value.

Experiment: qHTS screen for small molecules that induce genotoxicity in human embryonic kidney (HEK293T) cells expressing luciferase-tagged ELG1; also: nearly all actives have a fitted effect of over 60% in size
Details: HEK293T ELG1-luciferase reporter, luminescence, 16 h; series mostly up to 46 µM
Procedure, shortened: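 ELG1-luciferase HEK293T cells, 2,000/well; compound pinned in; 16 hr, 37 °C, 5% CO2; ONE-Glo, 30 min RT; luminescence on CCD imager.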
Potency is read from the fitted curve at half-maximal effect; tags tell the direction and shape of the fitted curve.

| SMILES | Potency |
| --- | --- |
| Nc1nc(SCC(=O)c2ccc(Oc3ccccc3)cc2)n[nH]1 | inconclusive: 16.4 µM [activator, partial curve, poor fit] |
| CCC1(c2ccccc2)NC(=S)N(c2ccc(C)cc2)N1 (stereo not drawn) | inconclusive: 2.91 µM [activator, single point] |
| CCOCCCNC(=O)/C(C#N)=C/c1ccc([N+](=O)[O-])o1 | inactive |
| COc1ccccc1N/C=C/c1onc(C)c1[N+](=O)[O-] | inconclusive: 0.0891 µM [activator, full curve, poor fit] |
| Oc1cc2c(cc1O)CN(C(=S)NCCc1ccc(Cl)cc1)CCC2 | inconclusive: 20.6 µM [activator, partial curve, poor fit] |
| COc1ccc(C(=O)CSc2nccn2C)cc1 | active: 23.1 µM |
| C=CCOc1ccc(C(=O)c2ccccc2)c(OCC(=O)NC2(C#N)CCCC2)c1 | inactive |
| COC(=O)c1ccc(COC(=O)c2cccnc2Cl)cc1 | inconclusive: 32.6 µM [activator, partial curve, poor fit] |
| COc1ccccc1NC(=O)c1oc2ccc(C)cc2c1C | inconclusive: 20.6 µM [activator, partial curve, poor fit] |
| COc1ccc(C2=Nn3c(nnc3-c3ccco3)SC2)cc1OC | inconclusive: 20.6 µM [activator, partial curve, poor fit] |
| CC(=O)/C=C1/C(=O)Nc2ccccc21 | inactive |
| CNC(=S)N/N=C1\C(=O)c2cccc3cccc1c23 | inconclusive: 18.4 µM [activator, partial curve, poor fit] |
| COc1ccc(NC(=O)CSc2nnc(-c3ccc(F)cc3)o2)cn1 | inconclusive: 13 µM [activator, partial curve, poor fit] |
| Cc1ccccc1NS(=O)(=O)c1ccc(C(=O)NCC(c2ccco2)N2CCCCC2)cc1 (stereo not drawn) | inconclusive: 29.1 µM [activator, partial curve, poor fit] |
| C/C(=N\NC(=O)C(N)=O)c1ccc(NC(=O)c2cccs2)cc1 | inconclusive: 25.9 µM [activator, partial curve, poor fit] |
| CC1(C)C[C@@H]1C(=O)N/C(=C\CCCCSC[C@H](N)C(=O)O)C(=O)O | inactive |
| Cc1cccc(S(=O)(=O)Nc2cccc(-c3cn4ccsc4n3)c2)c1 | inactive |
| Cc1ccc2oc(-c3ccco3)nc2c1 | inconclusive: 18.4 µM [activator, partial curve, poor fit] |
| N=c1oc2ccccc2cc1C(=O)NC1CCCCCC1 | inconclusive: 4.11 µM [activator, single point] |
| O=C(CN1CCCC1)NCc1ccccc1 | inconclusive: 0.231 µM [activator, single point] |
| O=C(NC1CCCCC1)NC1CCN(S(=O)(=O)c2ccc3c(c2)OCCO3)CC1 | inconclusive: 32.6 µM [activator, partial curve, poor fit] |
| Cc1cc(/C=N/Nc2nc(N)ncc2[N+](=O)[O-])c(C)n1-c1ccccc1F | inconclusive: 0.092 µM [activator, full curve] |
| Cc1[nH]c2ccccc2c1-c1nc2ccccc2[nH]1 | inconclusive: 20.6 µM [activator, single point] |
| CN(C)c1ccc(/C=C/c2nc3ccccc3c(=O)[nH]2)cc1 | active: 0.58 µM |

| SMILES | Potency |
| --- | --- |
| COc1ccc(-c2nc3nc(C)cc(C)n3n2)cc1 | inconclusive: 10.3 µM [activator, partial curve] |
| CCN(CC)C(=O)c1ccc(C(=O)Nc2ccc(F)cc2)cc1 | inconclusive: 18.3 µM [activator, single point] |
| O=c1c2ccccc2nnn1CSc1nnc2ccccn12 | active: 18.4 µM |
| Cc1ccc(-n2nc3c(=O)n(CCCC(=O)NCCc4ccccc4C)nc(C)c3c2C)cc1 | inactive |
| CCCCn1c(N)c(N(CCOC)C(=O)c2cc(-c3ccccc3Cl)nc3ccccc23)c(=O)[nH]c1=O | inactive |
| COc1ccc(/C=C/C(=O)Nn2cnnc2)cc1 | inactive |
| Cc1occc(=O)c1OC(=O)Nc1ccc(Cl)c(Cl)c1 | inactive |
| CCOC(=O)N1CCN(C(=S)NC(=O)c2ccc(F)c(F)c2)CC1 | inactive |
| CC(=O)Nc1cccc(C(=O)N(CCc2ccccc2)Cc2ccccc2)c1 | inconclusive: 16.4 µM [activator, partial curve] |
| COc1ccccc1C(=O)Nc1nc(N)n(-c2ccccc2)n1 | inactive |
| CS(=O)(=O)N(CC(=O)Nc1ccc2c(c1)OCCO2)Cc1ccc(Cl)cc1 | inconclusive: 16.4 µM [activator, partial curve, poor fit] |
| O=C(N/N=C/C=C/c1ccccc1)c1ccccn1 | inconclusive: 23.1 µM [activator, single point] |
| Cc1ccc(O)c(/C=N/NC(=O)C2=NNC(c3ccccc3)(c3ccccc3)C2)c1 | inconclusive: 32.6 µM [activator, partial curve, poor fit] |
| Cc1ccc(-n2c(SCC(=O)NC3CCS(=O)(=O)C3)nc3ccccc3c2=O)cc1C (stereo not drawn) | inactive |
| CCOC(=O)c1[nH]c(C)c(C(=O)OCC)c1C | inconclusive: 18.4 µM [activator, single point] |
| Cc1cc(OCc2ccc(C(=O)n3cccn3)o2)ccc1Cl | inconclusive: 20.6 µM [activator, partial curve, poor fit] |
| CSc1ncccc1C(=O)OCC(=O)N(C)C | inactive |
| CSc1nc2nc(-c3ccccc3)cc(=O)n2[nH]1 | inconclusive: 20.6 µM [activator, single point] |
| COC(=O)c1ccccc1NC(=S)NC(C)=O | inactive |
| Cc1cccc(/C(N)=N/OC(=O)c2ccc(Cl)cc2Cl)c1 | inconclusive: 1.64 µM [activator, partial curve] |
| CCS(=O)(=O)NCc1cn2c(C)csc2n1 | inactive |
| COc1cccc(/C=N/Nc2ncccc2[N+](=O)[O-])c1OC | active: 0.291 µM |
| O=C1C(Cl)=C(Nc2cccc(O)c2)C(=O)N1Cc1ccccc1 | inactive |
| O=c1c2ccccc2nc2c3ccccc3ncn12 | inconclusive: 20.6 µM [activator, partial curve, poor fit] |
